Assay results from the supplement of paper PMC3334620.
Over roughly 33,000 sequences, “E-score (-0.5 to 0.5)” has its median near -0.043; the highest 2% begin near 0.37. The list shows a part of the results.

Biological target: T1, Upc2 (UniProt Q12151)
T1 sequence: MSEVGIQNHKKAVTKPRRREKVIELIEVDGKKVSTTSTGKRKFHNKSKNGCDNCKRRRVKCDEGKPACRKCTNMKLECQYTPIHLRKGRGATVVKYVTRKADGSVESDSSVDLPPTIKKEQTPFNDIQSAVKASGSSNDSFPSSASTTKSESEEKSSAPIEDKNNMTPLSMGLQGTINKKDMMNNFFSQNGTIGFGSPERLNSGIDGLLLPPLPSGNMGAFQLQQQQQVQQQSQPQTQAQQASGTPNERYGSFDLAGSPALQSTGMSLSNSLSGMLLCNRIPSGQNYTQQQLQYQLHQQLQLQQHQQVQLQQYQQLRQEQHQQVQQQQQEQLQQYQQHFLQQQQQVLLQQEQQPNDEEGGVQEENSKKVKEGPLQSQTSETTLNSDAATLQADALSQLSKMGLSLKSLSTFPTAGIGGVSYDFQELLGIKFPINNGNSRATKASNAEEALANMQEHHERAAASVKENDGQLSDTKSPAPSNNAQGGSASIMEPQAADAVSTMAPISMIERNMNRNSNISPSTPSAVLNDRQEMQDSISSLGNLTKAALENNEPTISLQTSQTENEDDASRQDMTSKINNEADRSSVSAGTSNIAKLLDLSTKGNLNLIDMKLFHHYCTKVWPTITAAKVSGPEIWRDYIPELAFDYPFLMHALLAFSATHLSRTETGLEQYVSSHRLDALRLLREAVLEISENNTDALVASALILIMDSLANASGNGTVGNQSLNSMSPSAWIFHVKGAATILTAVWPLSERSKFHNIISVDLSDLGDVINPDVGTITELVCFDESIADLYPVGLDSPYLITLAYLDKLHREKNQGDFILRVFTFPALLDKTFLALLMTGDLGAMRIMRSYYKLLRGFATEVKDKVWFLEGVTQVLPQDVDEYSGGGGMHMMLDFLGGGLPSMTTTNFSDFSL
Assay: PBM E-score (8-mer binding enrichment) (E-score (-0.5 to 0.5)); higher = stronger / more preferred TF binding; most listed sequences are background and not binding sites
Conditions: protein concentration: 200 nM; construct: GST-full length
Procedure, shortened: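 Using PURExpress in vitro transcription/translation, GST-tagged yeast transcription factors were made in full-length or DNA-binding-domain form. These were applied at about 100-200 nM to double-stranded universal all-10-mer Agilent arrays, and bound protein was detected with fluorescent anti-GST. Scans were normalised with masliner before the Universal PBM Analysis Suite assigned E-scores to ungapped eight-base words pooled with their reverse complements.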

| Sequence | PBM E-score |
| --- | --- |
| GATGCCGC | -0.135 |
| GACACTAC | 0.0466 |
| CTAGAATA | 0.0873 |
| ATACTCGC | 0.249 |
| GATCACGA | -0.00109 |
| CGCGTAGC | 0.184 |
| CCCTACGG | -0.0948 |
| CTGTACGA | 0.488 |
| AGTGTGAG | -0.163 |
| CAAATCCA | -0.0755 |
| CGCCACCG | 0.0557 |
| AAGGACTT | -0.248 |
| AGCCTCAT | -0.229 |
| ATCTCATC | -0.0324 |
| CGAACCCA | 0.131 |
| AAACTCTC | 0.0645 |
| CATGGTTA | 0.0278 |
| AGAGCGGA | 0.0747 |
| AATCACCT | -0.0272 |
| AAGGGTCT | -0.221 |
| CTTGGATA | -0.103 |
| ACCAGTAG | -0.137 |
| ATTGGCGA | -0.0375 |
| GTTTAGGA | 0.318 |

| Sequence | PBM E-score |
| --- | --- |
| GCACAAAA | 0.122 |
| ACCCTCTC | -0.197 |
| CACCATCG | -0.149 |
| GTCCCTAA | -0.117 |
| CTCGCAAA | 0.261 |
| GACTGTAC | 0.276 |
| AGCAGAGC | -0.151 |
| AGGACGTC | -0.135 |
| ACAATGCC | -0.191 |
| ATAAAGGG | -0.0472 |
| GCCTTGCA | -0.133 |
| CCTCTAAA | -0.185 |
| AGCATCTC | -0.241 |
| CCTGATCA | -0.0937 |
| CGTCATCC | -0.00809 |
| AAAGGATC | -0.127 |
| CCTGGGAA | 0.0157 |
| CCGATTCG | 0.119 |
| ACGGTCAA | 0.28 |
| CATTACGA | 0.316 |
| AACGATAA | 0.381 |
| ATAACCCG | 0.00717 |
| CGCCTGCA | -0.277 |
| ACGGACTG | 0.128 |

| Sequence | PBM E-score |
| --- | --- |
| CGAACTAA | 0.105 |
| AGCCCGCT | -0.199 |
| CGACCATA | 0.171 |
| ATACGTCG | 0.329 |
| AAAGACAT | -0.197 |
| TACAAATA | 0.0915 |
| CGGACCAC | 0.0946 |
| CATTTGTA | -0.0189 |
| AAAGTTAC | 0.0444 |
| AGGGGCAT | -0.0385 |
| GGTATTAA | -0.061 |
| AGACTGAG | -0.181 |
| GCGATAAC | 0.0496 |
| CATGTGAG | -0.165 |
| AAAAACCA | 0.092 |
| GGAAATCC | 0.0173 |
| GACGACGA | -0.00938 |
| GCGCGACC | 0.0445 |
| GTCCATGA | -0.223 |
| CAGAAGGA | -0.326 |
| AACCTAAG | -0.196 |
| CAGTTAAA | 0.2 |
| AGCCCTCG | 0.183 |
| TTCTTAAA | -0.0313 |

| Sequence | PBM E-score |
| --- | --- |
| AACAGATG | -0.115 |
| CCGTATGC | 0.356 |
| CACTGTCA | -0.113 |
| CTCGCCTA | 0.11 |
| CAGGAAAA | -0.0799 |
| CGCGAGAA | 0.0746 |
| CCCGCAAA | 0.145 |
| AAACAAAA | 0.0602 |
| TACCTAGA | -0.0808 |
| AACTAGGG | -0.0928 |
| ACAAAAAA | 0.0149 |
| ATGTCGTC | -0.0259 |
| ACTTCGCC | -0.0263 |
| CGAGTTCA | 0.0279 |
| AAGGATAC | -0.027 |
| GGGCCTAA | -0.294 |
| CCTTTACA | -0.0853 |
| CCACGATA | -0.0526 |
| AAACTGAA | -0.0489 |
| ACGACCGG | 0.207 |
| AAGGGTTC | -0.162 |
| ACTTATTG | -0.116 |
